Assay results as given in the supplement of paper PMC10369915.
The list shows a part of the results. Cut-off read from the data, not from the text of the source: active = 3.2 or more and inactive = the rest. Only a few entries rise above the background.

B1: RYR2_Y3780_L3778F (peptide)
chain: QKMFDYLKEKK
B2: SARG_Y259_R258G (peptide)
chain: TVSTGYTQPQP
B3: RPS6KA3_Y488_Y483C (peptide)
chain: CDDGKYVYVVT
B4: RPL5_Y207_Y210C (peptide)
chain: QNVADYMRCLM
B5: RS1_Y177_G178D (peptide)
chain: NNRVFYDNSDR
B6: RS1_Y166_W163C_YF (peptide)
chain: LNCIFYKDQTG
B7: SAMHD1_Y146 (peptide)
chain: FQRLRYIKQLG
B8: SACS_Y4333 (peptide)
chain: IIRRLYLKWHP
B9: RPS8_Y113_R110G_YF (peptide)
chain: PFGQWYESHFA
B10: SACS_Y3477_L3481P (peptide)
chain: DDLEVYLKHPL
B11: SART1_Y685_I681V (peptide)
chain: AVDDKYSRREE
B12: SARS2_Y52_G51C (peptide)
chain: YARECYSALPQ
B13: RPS8_Y109_R110G (peptide)
chain: IDSTPYGQWYE
B14: RPS6KA3_Y483_YF (peptide)
chain: TLKDVYDDGKF
B15: RPS19_Y48_W52C (peptide)
chain: KELAPYDENCF
B16: RPS19_Y54_T55M (peptide)
chain: DENWFYMRAAS
B17: SAMHD1_Y146_R143H (peptide)
chain: FQHLRYIKQLG
B18: SARS2_Y52_G51C_YF (peptide)
chain: FARECYSALPQ
B19: RYR1_Y4864_R4861H (peptide)
chain: FFHKFYNKSED

molecular target: SHP2 C-SH2 domain E139D; assay: enrichment score (SH2-bound / input frequency) (ratio); bacterial display of known human phosphotyrosine sites (pTyr-Var adds point mutants) read by sequencing; higher = stronger binding; tyrosines were phosphorylated by kinases first; settings: peptide library: pTyr-Var
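Note: displayed peptides selected on beads carrying the immobilized SH2 domain, with library peptides lacking any tyrosine serving as negative controls.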

Enrichment score, inactive:
B1 1.24
B2 0.58
B3 0.745
B4 0.807
B5 0.792
B6 0.991
B7 0.603
B8 0.56
B9 0.885
B10 1.32
B11 0.531
B12 0.614
B13 0.936
B14 0.393
B15 0.854
B16 0.861
B17 0.883
B18 0.737
B19 0.956

molecular target: SHP2 C-SH2 domain wild-type; assay: as above; settings: peptide library: pTyr-Var

Enrichment score, inactive:
B1 1.26
B2 0.601
B3 0.965
B4 0.793
B5 0.647
B6 1.42
B7 0.907
B8 0.359
B9 0.88
B10 1.13
B11 0.646
B12 0.798
B13 0.844
B14 0.423
B15 0.642
B16 0.776
B17 0.897
B18 0.828
B19 0.826

molecular target: SHP2 N-SH2 domain L43F; assay: as above; settings: peptide library: pTyr-Var

Enrichment score, inactive:
B1 1.05
B2 0.838
B3 0.847
B4 0.873
B5 0.907
B6 0.781
B7 0.488
B8 0.405
B9 0.926
B10 1.35
B11 0.813
B12 0.77
B13 0.769
B14 0.416
B15 0.573
B16 0.778
B17 0.726
B18 0.626
B19 0.892

molecular target: SHP2 N-SH2 domain T42A; assay: as above; settings: peptide library: pTyr-Var

Enrichment score, inactive:
B1 1.32
B2 0.612
B3 0.675
B4 0.784
B5 0.776
B6 1.03
B7 0.428
B8 0.361
B9 1.03
B10 0.942
B11 0.578
B12 0.644
B13 0.677
B14 0.455
B15 0.654
B16 0.771
B17 0.771
B18 0.638
B19 0.634

molecular target: SHP2 N-SH2 domain T52S; assay: as above; settings: peptide library: pTyr-Var

Enrichment score, inactive:
B1 1.32
B2 0.563
B3 0.769
B4 0.728
B5 0.706
B6 1.44
B7 0.703
B8 0.391
B9 0.847
B10 1.31
B11 0.544
B12 0.605
B13 0.883
B14 0.581
B15 0.619
B16 0.936
B17 0.761
B18 0.637
B19 0.914

molecular target: SHP2 N-SH2 domain wild-type; assay: as above; settings: peptide library: pTyr-Var

Enrichment score, inactive:
B1 1.61
B2 0.619
B3 1.15
B4 0.727
B5 0.787
B6 2.73
B7 0.824
B8 0.456
B9 1.07
B10 1.31
B11 0.686
B12 0.79
B13 0.918
B14 0.499
B15 0.697
B16 0.687
B17 1.12
B18 0.884
B19 0.917
